According to PubChem BioAssay AID624296 (National Center for Advancing Translational Sciences (NCATS), 2012):
About 9,900 (2.8%) of roughly 350,000 compounds were called active. Inconclusive means that the source gave no clear call. Such entries were picked first, then a sample of the others. The call rests on the fitted dose curve; in most records, active means well fitted activation curve with a large enough effect; inconclusive means small, poorly fitted or top-dose-only effect; inactive means no such curve, though single readings can be large or run the other way. No potency is given beside an inconclusive call; the fits are too rough.
Potency means the concentration at half of the fitted maximal effect; tags describe the fitted curve by direction and shape.

Assay: A quantitative high throughput screen for small molecules that induce DNA re-replication in MCF 10a normal breast cells. Further: nearly all actives have a fitted effect of over 50% in size. On activity, positive = re-replication: % of control where 0% means no effect.
Details: MCF 10A DNA re-replication, Hoechst nuclear intensity, 48 h; activity, positive = re-replication: at 46.1 µM (top of the series)
With `CN(Cc1c(F)cccc1Cl)C(=O)CNC(=O)c1cccs1` the “activity, positive = re-replication” value was inactive: 2.38%.
With `Cc1ccc(NC(=O)CSc2ccccc2NC(=O)c2ccccc2)cc1Cl` the Potency was active: 20.6 µM.
For `Cc1ccc2nc(-c3ccccn3)c(Nc3ccccc3C)n2c1`, the Potency was inconclusive [activator, single point].
In the case of `CCOC(=O)CCCCCC(=O)Nc1ccc2c(c1)C(=O)N([C@H](C)CO)C[C@@H](C)[C@H](CN(C)Cc1ccc3c(c1)OCO3)O2`, the Potency is reported as inconclusive [activator, partial curve, poor fit].
For `COc1cc(/C(C)=N/N2CCN(c3ccccc3OC)CC2)ccc1O`, the Potency was active: 3.66 µM.
With `COc1ccc(S(=O)(=O)N2CCOCC2)cc1NC(=O)Cc1c(Cl)cccc1Cl` the “activity, positive = re-replication” value was inactive: -0.785%.
With `Cc1c(NC(=O)/C(C#N)=C/c2ccc(-c3cccc(Cl)c3)o2)c(=O)n(-c2ccccc2)n1C` the Potency was inconclusive [activator, single point].
With `c1cncc(-c2nnc3sc(-c4ccco4)nn23)c1` the “activity, positive = re-replication” value was inactive: -0.048%.
For `O=C(Nc1ccccc1F)C1(c2ccccc2)CC1(Cl)Cl` (centres undefined), the Potency was inconclusive [activator, partial curve, poor fit].
For `CCc1ccc(-c2nc(NC(=O)c3ccc(OCC(=O)Nc4ccc(F)cc4)c(OC)c3)sc2C)cc1`, the “activity, positive = re-replication” value was inactive: 9.96%.
For `COc1cccc(Cl)c1NC(=O)N1CCN(c2ccnc3cc(Cl)ccc23)CC1`, the “activity, positive = re-replication” value was inactive: -0.636%.
With `COc1cc(N2N=C(c3ccccc3)CC2c2ccccc2)c(C=O)cc1C=O` (centres undefined) the Potency was inconclusive [activator, partial curve, poor fit].
For `CCN(CC)CCn1c2c(c(SCC(=O)Nc3ccccc3Cl)nc1=O)CCC2`, the “activity, positive = re-replication” value was inactive: 0.0505%.
For `COC(=O)c1cc(-c2c(-c3cc(OC)c(OC)c(OC)c3)noc2C)cc([N+](=O)[O-])c1`, the Potency was inconclusive [activator, single point].
With `Cc1ccc(CN2CCN(C(=O)CCC(=O)Nc3nnc(C(C)C)s3)CC2)c(C)c1` the “activity, positive = re-replication” value was inactive: 2.29%.
In the case of `CC(C)C[C@H](NC(=O)c1[nH]cnc1C(=O)Nc1ccc(CNC(=O)OC(C)(C)C)cc1)C(=O)OCc1ccccc1`, the Potency is reported as active: 18.4 µM.
For `O=S(=O)(Nc1ncnc2sc3c(c12)CCC3)c1ccc(Cl)s1`, the Potency was inconclusive [activator, partial curve, poor fit].
For `CCOC(=O)c1ccc(-c2c(-c3ccccc3OC)oc3ccccc23)cc1F`, the Potency was inconclusive [activator, single point].
In the case of `Oc1cc2c(cc1C(c1ccc(Br)cc1)N1CCCC1)OCO2` (centres undefined), the Potency is reported as inconclusive [activator, single point].
